Laboratory results from the CheMixHub viscosity set.
Several values for one entry are separate records, joined by “and”; a condition that tells them apart may be missing. Identical values can stand only once. This continues a long series; more values of the same kind are listed elsewhere.

Legend:
[1] = 101 kPa
[2] = xn = mol fraction of the nth substance listed

CCCC[n+]1ccn(C)c1.N#C[C-](C#N)C#N
[1]
Conditions	viscosity [mPa·s]
298.15 K	27.32
308.15 K	18.45
318.15 K	13.21

CC(O)CO (configuration not stated) + CS(C)=O
[2], 318.15 K, 100 kPa
Conditions	viscosity [mPa·s]
x1 = 0.3056	2.51
x1 = 0.356	2.78
x1 = 0.4064	3.1
x1 = 0.4566	3.44
x1 = 0.5066	3.83
x1 = 0.5565	4.3
x1 = 0.6063	4.86
x1 = 0.6556	5.52
x1 = 0.7055	6.29
x1 = 0.7549	7.22
x1 = 0.8042	8.39
x1 = 0.8533	9.77
x1 = 0.9024	11.5
x1 = 0.9512	13.5

CC(O)CO (configuration not stated) + O
[2]
Conditions	viscosity [mPa·s]
303.15 K, 101.3 kPa, x1 = 0.0256	1.078
303.15 K, 101.3 kPa, x1 = 0.0559	1.507
303.15 K, 101.3 kPa, x1 = 0.0921	2.137
303.15 K, 101.3 kPa, x1 = 0.1363	3.025
303.15 K, 101.3 kPa, x1 = 0.1914	4.28
303.15 K, 101.3 kPa, x1 = 0.262	5.795
303.15 K, 101.3 kPa, x1 = 0.3558	8.282
303.15 K, 101.3 kPa, x1 = 0.4863	12.92
303.15 K, 101.3 kPa, x1 = 0.6806	20.32
308.15 K, 101.3 kPa, x1 = 0.0256	0.971
308.15 K, 101.3 kPa, x1 = 0.0559	1.315
308.15 K, 101.3 kPa, x1 = 0.0921	1.823
308.15 K, 101.3 kPa, x1 = 0.1363	2.526
308.15 K, 101.3 kPa, x1 = 0.1914	3.52
308.15 K, 101.3 kPa, x1 = 0.262	4.918
308.15 K, 101.3 kPa, x1 = 0.3558	6.955
308.15 K, 101.3 kPa, x1 = 0.4863	10.16
308.15 K, 101.3 kPa, x1 = 0.6806	15.53
313 K, 101 kPa, x1 = 0.1	1.8
313 K, 101 kPa, x1 = 0.3	4.3
313 K, 101 kPa, x1 = 0.5	8.8
313 K, 101 kPa, x1 = 0.7	13.5
313 K, 101 kPa, x1 = 0.9	18.1
313.15 K, 101 kPa, x1 = 0.077	1.379
313.15 K, 101 kPa, x1 = 0.141	2.217
313.15 K, 101 kPa, x1 = 0.2339	3.608
313.15 K, 101 kPa, x1 = 0.3197	5.038
313.15 K, 101 kPa, x1 = 0.4041	6.565
313.15 K, 101 kPa, x1 = 0.4702	7.857
313.15 K, 101 kPa, x1 = 0.5285	9.022
313.15 K, 101 kPa, x1 = 0.6463	11.55
313.15 K, 101 kPa, x1 = 0.6737	12.15
313.15 K, 101 kPa, x1 = 0.8015	15.03
313.15 K, 101 kPa, x1 = 0.8695	16.61
313.15 K, 101 kPa, x1 = 0.9378	18.12
313.15 K, 101.3 kPa, x1 = 0.0256	0.862
313.15 K, 101.3 kPa, x1 = 0.0559	1.16
313.15 K, 101.3 kPa, x1 = 0.0921	1.588
313.15 K, 101.3 kPa, x1 = 0.1363	2.163
313.15 K, 101.3 kPa, x1 = 0.1914	2.965
313.15 K, 101.3 kPa, x1 = 0.262	4.074
313.15 K, 101.3 kPa, x1 = 0.3558	5.677
313.15 K, 101.3 kPa, x1 = 0.4863	8.165
313.15 K, 101.3 kPa, x1 = 0.6806	12.35
318.15 K, 101.3 kPa, x1 = 0.0256	0.772
318.15 K, 101.3 kPa, x1 = 0.0559	1.025
318.15 K, 101.3 kPa, x1 = 0.0921	1.377
318.15 K, 101.3 kPa, x1 = 0.1363	1.851
318.15 K, 101.3 kPa, x1 = 0.1914	2.501
318.15 K, 101.3 kPa, x1 = 0.262	3.4
318.15 K, 101.3 kPa, x1 = 0.3558	4.68
318.15 K, 101.3 kPa, x1 = 0.4863	6.641
318.15 K, 101.3 kPa, x1 = 0.6806	9.8
323.15 K, 101 kPa, x1 = 0.0399	0.817
323.15 K, 101 kPa, x1 = 0.0501	0.889
323.15 K, 101 kPa, x1 = 0.0598	0.967
323.15 K, 101 kPa, x1 = 0.07	1.045
323.15 K, 101 kPa, x1 = 0.08	1.129
323.15 K, 101 kPa, x1 = 0.0899	1.211
323.15 K, 101 kPa, x1 = 0.1	1.299

NCC(=O)O + O
[2]
Conditions	viscosity
298 K, 101 kPa, x1 = 0.0004	0.8837 mPa·s
298 K, 101 kPa, x1 = 0.001	0.8937 mPa·s
298 K, 101 kPa, x1 = 0.0018	0.8965 mPa·s
298.15 K, 100 kPa, x1 = 0.005954	0.9158 mPa·s
298.15 K, 100 kPa, x1 = 0.006751	0.9191 mPa·s
298.15 K, 101 kPa, x1 = 9e-05	0.8973 mPa·s
298.15 K, 101 kPa, x1 = 0.00018	0.9052 mPa·s
298.15 K, 101 kPa, x1 = 0.0009	0.8943 mPa·s
298.15 K, 101 kPa, x1 = 0.00135	0.897 mPa·s
298.15 K, 101 kPa, x1 = 0.0018	0.8997 mPa·s
298.15 K, 101 kPa, x1 = 0.002198	0.9055 mPa·s
298.15 K, 101 kPa, x1 = 0.002695	0.9054 mPa·s
298.15 K, 101 kPa, x1 = 0.0029	0.9155 mPa·s
298.15 K, 101 kPa, x1 = 0.0032	0.918 mPa·s
298.15 K, 101 kPa, x1 = 0.00359	0.916 mPa·s
298.15 K, 101 kPa, x1 = 0.0036	0.9222 mPa·s
298.15 K, 101 kPa, x1 = 0.004484	0.922 mPa·s
298.15 K, 101 kPa, x1 = 0.006266	0.935 mPa·s
303.15 K, 100 kPa, x1 = 0.003486	0.8125 mPa·s
303.15 K, 100 kPa, x1 = 0.004323	0.8159 mPa·s
303.15 K, 100 kPa, x1 = 0.005145	0.8191 mPa·s
303.15 K, 100 kPa, x1 = 0.005954	0.8223 mPa·s
303.15 K, 101 kPa, x1 = 9e-05	0.8038 mPa·s
303.15 K, 101 kPa, x1 = 0.00018	0.8102 mPa·s
303.15 K, 101 kPa, x1 = 0.00027	0.8166 mPa·s
303.15 K, 101 kPa, x1 = 0.00036	0.823 mPa·s
303.15 K, 101 kPa, x1 = 0.0004	0.801 mPa·s
303.15 K, 101 kPa, x1 = 0.0007	0.803 mPa·s
303.15 K, 101 kPa, x1 = 0.0009	0.8012 mPa·s
303.15 K, 101 kPa, x1 = 0.001	0.805 mPa·s
303.15 K, 101 kPa, x1 = 0.00135	0.8037 mPa·s
303.15 K, 101 kPa, x1 = 0.0018	0.81 mPa·s
303.15 K, 101 kPa, x1 = 0.002695	0.8118 mPa·s
303.15 K, 101 kPa, x1 = 0.0032	0.824 mPa·s
303.15 K, 101 kPa, x1 = 0.0036	0.8279 mPa·s and 0.814 mPa·s
303.15 K, 101 kPa, x1 = 0.0072	0.837 mPa·s
303.15 K, 101 kPa, x1 = 0.011	0.854 mPa·s
303.15 K, 101 kPa, x1 = 0.014	0.877 mPa·s
308.15 K, 100 kPa, x1 = 0.002636	0.7307 mPa·s
308.15 K, 100 kPa, x1 = 0.005954	0.7437 mPa·s
308.15 K, 101 kPa, x1 = 9e-05	0.7253 mPa·s
308.15 K, 101 kPa, x1 = 0.00036	0.7361 mPa·s
308.15 K, 101 kPa, x1 = 0.001	0.725 mPa·s and 0.728 mPa·s
308.15 K, 101 kPa, x1 = 0.00135	0.7252 mPa·s
308.15 K, 101 kPa, x1 = 0.0018	0.7277 mPa·s
308.15 K, 101 kPa, x1 = 0.0036	0.7497 mPa·s
308.15 K, 101 kPa, x1 = 0.011	0.781 mPa·s
308.15 K, 101 kPa, x1 = 0.014	0.8 mPa·s
308.15 K, 101 kPa, x1 = 0.0177	0.819 mPa·s
313.15 K, 100 kPa, x1 = 0.002636	0.6644 mPa·s
313.15 K, 100 kPa, x1 = 0.003486	0.6677 mPa·s
313.15 K, 100 kPa, x1 = 0.004323	0.6709 mPa·s
313.15 K, 100 kPa, x1 = 0.005145	0.674 mPa·s
313.15 K, 100 kPa, x1 = 0.005954	0.6771 mPa·s
313.15 K, 101 kPa, x1 = 9e-05	0.6597 mPa·s
313.15 K, 101 kPa, x1 = 0.00018	0.6671 mPa·s
313.15 K, 101 kPa, x1 = 0.00027	0.6744 mPa·s
313.15 K, 101 kPa, x1 = 0.00036	0.6816 mPa·s
313.15 K, 101 kPa, x1 = 0.001	0.66 mPa·s and 0.659 mPa·s
313.15 K, 101 kPa, x1 = 0.00135	0.6586 mPa·s
313.15 K, 101 kPa, x1 = 0.0018	0.662 mPa·s
313.15 K, 101 kPa, x1 = 0.0029	0.677 mPa·s
313.15 K, 101 kPa, x1 = 0.0032	0.679 mPa·s
313.15 K, 101 kPa, x1 = 0.0036	0.6823 mPa·s and 0.67 mPa·s
313.15 K, 101 kPa, x1 = 0.011	0.709 mPa·s
313.15 K, 101 kPa, x1 = 0.014	0.725 mPa·s
313.15 K, 101 kPa, x1 = 0.0177	0.742 mPa·s
318.15 K, 100 kPa, x1 = 0.000893	0.6003 mPa·s
318.15 K, 100 kPa, x1 = 0.00177	0.6036 mPa·s
318.15 K, 100 kPa, x1 = 0.002636	0.6068 mPa·s
318.15 K, 100 kPa, x1 = 0.003486	0.6099 mPa·s
318.15 K, 100 kPa, x1 = 0.005145	0.6161 mPa·s
318.15 K, 100 kPa, x1 = 0.005954	0.6191 mPa·s
318.15 K, 100 kPa, x1 = 0.006751	0.6221 mPa·s
318.15 K, 101 kPa, x1 = 0.0007	0.6 mPa·s
318.15 K, 101 kPa, x1 = 0.0009	0.6007 mPa·s
318.15 K, 101 kPa, x1 = 0.001	0.604 mPa·s and 0.605 mPa·s
318.15 K, 101 kPa, x1 = 0.0018	0.605 mPa·s and 0.6053 mPa·s
318.15 K, 101 kPa, x1 = 0.002245	0.6076 mPa·s
318.15 K, 101 kPa, x1 = 0.002695	0.6099 mPa·s
